What was measured:
[1] = test system: obese type 2 diabetic patients younger than 50 and not adequately controlled with metformin; experiment: Example 2: patients requiring rescue therapy during the double-blind treatment period; settings: mITT
[2] = test system: obese type 2 diabetic patients younger than 50 and not adequately controlled with metformin; experiment: Example 2: composite responders (HbA1c <7% and weight loss of at least 5%) at Week 24, lixisenatide vs sitagliptin as add-on to metformin
[3] = test system: obese type 2 diabetic patients younger than 50 and not adequately controlled with metformin; experiment: Example 2: HbA1c change from baseline and HbA1c responders; settings: add-on to metformin, mITT

N[C@@H](CC(=O)N1CCn2c(nnc2C(F)(F)F)C1)Cc1cc(F)c(F)cc1F [sitagliptin]
Patients requiring rescue therapy during the double-blind treatment period [1]: 11 (6.8%) n (%) | percentage of patients with HbA1c<7% at Week 24 and a weight loss of at least 5% of baseline body weight at Week 24 ([2]; add-on to metformin, mITT, LOCF): 7.5% | Response rate: patients with HbA1c <7% at Week 24 and weight loss of ≧5% of baseline body weight at Week 24 ([2]; mITT population): 12 (7.5%) n (%) | patients with HbA1c<7% at Week 24 [3]: 40.0%

From US8735349B2, “Method for improving glucose tolerance in a diabetes type 2 patient of younger than 50 years and having postprandial plasma glucose concentration of at least 14 mmol/L” (priority 2011, dated 2014)
